Measurements from publication PMC8103106.
Results are given in words; binding and its absence hold for the method and conditions named. In cells and extracts the contact can be indirect. Some entries that bind do so weakly or less than the wild type. Where a sequence is shown, tags or fusion partners need not be part of it.

Protein sequences, listed by entry. Tags and fused reporters are not part of them.
UniProt P51149: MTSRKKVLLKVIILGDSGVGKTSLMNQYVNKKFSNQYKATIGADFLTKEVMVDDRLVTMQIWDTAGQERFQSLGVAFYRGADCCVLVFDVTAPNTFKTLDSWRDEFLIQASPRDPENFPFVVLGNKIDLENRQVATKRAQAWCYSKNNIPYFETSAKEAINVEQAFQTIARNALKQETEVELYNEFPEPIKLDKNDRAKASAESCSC
UniProt Q9NVJ2: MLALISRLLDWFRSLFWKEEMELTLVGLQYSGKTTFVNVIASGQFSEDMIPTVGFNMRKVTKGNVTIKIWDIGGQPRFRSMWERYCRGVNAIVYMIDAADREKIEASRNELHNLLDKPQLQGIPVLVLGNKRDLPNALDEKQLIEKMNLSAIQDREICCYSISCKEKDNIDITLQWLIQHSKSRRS

T1: endogenous VPS18 (human (endogenous in HeLa)) (UniProt Q9P253)
T1 sequence: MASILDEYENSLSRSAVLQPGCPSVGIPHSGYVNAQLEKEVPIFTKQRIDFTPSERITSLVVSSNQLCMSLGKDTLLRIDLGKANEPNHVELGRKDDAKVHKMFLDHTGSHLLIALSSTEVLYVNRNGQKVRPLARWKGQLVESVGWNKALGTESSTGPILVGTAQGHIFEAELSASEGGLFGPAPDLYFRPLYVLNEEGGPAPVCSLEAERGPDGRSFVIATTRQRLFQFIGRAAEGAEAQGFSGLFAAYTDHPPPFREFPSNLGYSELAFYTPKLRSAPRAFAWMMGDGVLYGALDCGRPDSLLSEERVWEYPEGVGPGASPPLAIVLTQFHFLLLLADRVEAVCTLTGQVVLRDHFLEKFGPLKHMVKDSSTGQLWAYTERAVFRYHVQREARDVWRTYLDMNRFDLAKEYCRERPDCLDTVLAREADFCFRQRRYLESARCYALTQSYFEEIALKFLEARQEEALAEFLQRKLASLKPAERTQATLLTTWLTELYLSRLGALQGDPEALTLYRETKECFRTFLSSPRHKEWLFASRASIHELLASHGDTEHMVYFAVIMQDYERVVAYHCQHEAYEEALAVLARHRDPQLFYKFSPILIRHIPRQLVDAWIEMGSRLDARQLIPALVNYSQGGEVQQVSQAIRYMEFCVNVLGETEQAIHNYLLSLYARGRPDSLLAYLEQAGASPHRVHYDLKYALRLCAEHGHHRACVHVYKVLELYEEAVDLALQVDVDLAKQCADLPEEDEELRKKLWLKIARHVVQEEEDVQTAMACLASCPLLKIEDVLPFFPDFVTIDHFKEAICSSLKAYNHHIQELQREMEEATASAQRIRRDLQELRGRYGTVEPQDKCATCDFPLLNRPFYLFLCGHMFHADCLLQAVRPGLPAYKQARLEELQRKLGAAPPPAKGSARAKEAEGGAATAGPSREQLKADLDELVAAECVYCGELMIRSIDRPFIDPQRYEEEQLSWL

T2: FLAG-VPS18 (UniProt Q9P253)
T2 sequence: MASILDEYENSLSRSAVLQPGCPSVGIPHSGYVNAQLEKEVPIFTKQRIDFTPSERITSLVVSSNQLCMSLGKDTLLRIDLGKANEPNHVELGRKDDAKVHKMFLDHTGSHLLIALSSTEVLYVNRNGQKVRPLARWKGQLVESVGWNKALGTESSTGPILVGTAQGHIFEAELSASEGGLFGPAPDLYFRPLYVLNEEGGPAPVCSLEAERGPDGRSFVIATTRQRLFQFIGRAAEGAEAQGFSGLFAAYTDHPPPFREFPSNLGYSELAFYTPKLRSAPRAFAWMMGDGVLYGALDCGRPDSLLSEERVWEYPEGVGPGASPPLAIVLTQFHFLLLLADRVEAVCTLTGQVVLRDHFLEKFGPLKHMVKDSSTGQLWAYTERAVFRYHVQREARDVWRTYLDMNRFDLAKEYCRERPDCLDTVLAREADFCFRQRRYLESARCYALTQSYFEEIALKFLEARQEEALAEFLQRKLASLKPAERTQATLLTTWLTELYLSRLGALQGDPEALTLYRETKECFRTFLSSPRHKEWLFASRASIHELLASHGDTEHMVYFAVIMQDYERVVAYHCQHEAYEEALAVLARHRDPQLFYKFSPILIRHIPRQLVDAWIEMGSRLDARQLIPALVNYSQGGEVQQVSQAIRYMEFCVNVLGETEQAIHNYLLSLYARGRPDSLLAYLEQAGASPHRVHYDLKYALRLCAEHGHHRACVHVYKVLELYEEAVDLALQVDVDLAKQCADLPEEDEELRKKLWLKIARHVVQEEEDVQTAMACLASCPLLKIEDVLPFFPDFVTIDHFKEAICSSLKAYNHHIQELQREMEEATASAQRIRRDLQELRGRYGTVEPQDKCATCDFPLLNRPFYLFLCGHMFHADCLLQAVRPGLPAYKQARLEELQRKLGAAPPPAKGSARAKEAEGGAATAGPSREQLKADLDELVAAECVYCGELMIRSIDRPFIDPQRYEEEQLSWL

T3: HA-VPS33A (UniProt Q96AX1)
T3 sequence: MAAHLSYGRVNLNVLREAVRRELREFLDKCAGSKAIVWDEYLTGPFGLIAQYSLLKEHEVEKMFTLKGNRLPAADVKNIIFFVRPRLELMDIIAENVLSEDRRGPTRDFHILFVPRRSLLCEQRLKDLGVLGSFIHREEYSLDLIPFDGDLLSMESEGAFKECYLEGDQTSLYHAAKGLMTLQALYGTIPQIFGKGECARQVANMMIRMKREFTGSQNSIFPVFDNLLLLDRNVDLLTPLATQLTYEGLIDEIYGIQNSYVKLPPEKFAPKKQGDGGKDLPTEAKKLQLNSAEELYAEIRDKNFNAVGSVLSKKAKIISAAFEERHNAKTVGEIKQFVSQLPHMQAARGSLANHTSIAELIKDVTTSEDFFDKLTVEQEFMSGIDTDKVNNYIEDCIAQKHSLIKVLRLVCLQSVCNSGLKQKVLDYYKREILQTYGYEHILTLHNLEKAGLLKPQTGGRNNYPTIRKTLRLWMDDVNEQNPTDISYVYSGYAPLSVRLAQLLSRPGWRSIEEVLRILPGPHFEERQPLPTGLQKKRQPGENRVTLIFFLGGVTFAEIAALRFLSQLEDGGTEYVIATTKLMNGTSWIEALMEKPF


Columns and labels:
[1] = molecular target: FLAG-RAB7 (UniProt P51149); assay: co-IP; HeLa^WT cells transiently co-expressing VPS41-APEX2-V5 constructs and FLAG-RAB7 or GFP-Arl8b; IP on FLAG or GFP, respectively; CHAPS lysis buffer
[2] = molecular target: GFP-Arl8b (UniProt Q9NVJ2); assay: as above
[3] = molecular target: T1, endogenous VPS18 (human (endogenous in HeLa)); assay: co-IP; HeLa^VPS41KO cells expressing GFP-tagged VPS41 constructs; endogenous VPS18 detected; CHAPS lysis buffer
[4] = molecular target: T2, FLAG-VPS18; assay: co-IP; HeLa cells co-expressing GFP-VPS41 constructs and FLAG-VPS18 or HA-VPS33A; CHAPS lysis buffer (50 mM Tris pH 7.5, 150 mM NaCl, 5 mM MgCl2, 1 mM DTT, 1% CHAPS); protein G beads with 2 µg antibody, overnight; which partner was precipitated is not told
[5] = molecular target: T3, HA-VPS33A; assay: as above

binding [1] | binding [2] | binding [3] | binding [4] | binding [5] | Binder
 |  | no binding |  |  | GFP-VPS41^R662* (domain or fragment, UniProt P49754-1 1-661) MAEAEEQETGSLEESTDESEEEESEEEPKLKYERLSNGVTEILQKDAASCMTVHDKFLALGTHYGKVYLLDVQGNITQKFDVSPVKINQISLDESGEHMGVCSEDGKVQVFGLYSGEEFHETFDCPIKIIAVHPHFVRSSCKQFVTGGKKLLLFERSWMNRWKSAVLHEGEGNIRSVKWRGHLIAWANNMGVKIFDIISKQRITNVPRDDISLRPDMYPCSLCWKDNVTLIIGWGTSVKVCSVKERHASEMRDLPSRYVEIVSQFETEFYISGLAPLCDQLVVLSYVKEISEKTEREYCARPRLDIIQPLSETCEEISSDALTVRGFQENECRDYHLEYSEGESLFYIVSPRDVVVAKERDQDDHIDWLLEKKKYEEALMAAEISQKNIKRHKILDIGLAYINHLVERGDYDIAARKCQKILGKNAALWEYEVYKFKEIGQLKAISPYLPRGDPVLKPLIYEMILHEFLESDYEGFATLIREWPGDLYNNSVIVQAVRDHLKKDSQNKTLLKTLAELYTYDKNYGNALEIYLTLRHKDVFQLIHKHNLFSSIKDKIVLLMDFDSEKAVDMLLDNEDKISIKKVVEELEDRPELQHVYLHKLFKRDHHKGQRYHEKQISLYAEYDRPNLLPFLRDSTHCPLEKALEICQQRNFVEETVYLLS
 |  | binds | binds | binds | GFP-VPS41^S285P (protein, UniProt P49754-1 1-854) MAEAEEQETGSLEESTDESEEEESEEEPKLKYERLSNGVTEILQKDAASCMTVHDKFLALGTHYGKVYLLDVQGNITQKFDVSPVKINQISLDESGEHMGVCSEDGKVQVFGLYSGEEFHETFDCPIKIIAVHPHFVRSSCKQFVTGGKKLLLFERSWMNRWKSAVLHEGEGNIRSVKWRGHLIAWANNMGVKIFDIISKQRITNVPRDDISLRPDMYPCSLCWKDNVTLIIGWGTSVKVCSVKERHASEMRDLPSRYVEIVSQFETEFYISGLAPLCDQLVVLPYVKEISEKTEREYCARPRLDIIQPLSETCEEISSDALTVRGFQENECRDYHLEYSEGESLFYIVSPRDVVVAKERDQDDHIDWLLEKKKYEEALMAAEISQKNIKRHKILDIGLAYINHLVERGDYDIAARKCQKILGKNAALWEYEVYKFKEIGQLKAISPYLPRGDPVLKPLIYEMILHEFLESDYEGFATLIREWPGDLYNNSVIVQAVRDHLKKDSQNKTLLKTLAELYTYDKNYGNALEIYLTLRHKDVFQLIHKHNLFSSIKDKIVLLMDFDSEKAVDMLLDNEDKISIKKVVEELEDRPELQHVYLHKLFKRDHHKGQRYHEKQISLYAEYDRPNLLPFLRDSTHCPLEKALEICQQRNFVEETVYLLSRMGNSRSALKMIMEELHDVDKAIEFAKEQDDGELWEDLILYSIDKPPFITGLLNNIGTHVDPILLIHRIKEGMEIPNLRDSLVKILQDYNLQILLREGCKKILVADSLSLLKKMHRTQMKGVLVDEENICESCLSPILPSDAAKPFSVVVFHCRHMFHKECLPMPSMNSAAQFCNICSAKNRGPGSAILEMKK

Second part, the binder before the results:

Binder | binding [1] | binding [2] | binding [3] | binding [4] | binding [5]
VPS41^R662*-APEX2-V5 (domain or fragment, UniProt P49754-1 1-661) MAEAEEQETGSLEESTDESEEEESEEEPKLKYERLSNGVTEILQKDAASCMTVHDKFLALGTHYGKVYLLDVQGNITQKFDVSPVKINQISLDESGEHMGVCSEDGKVQVFGLYSGEEFHETFDCPIKIIAVHPHFVRSSCKQFVTGGKKLLLFERSWMNRWKSAVLHEGEGNIRSVKWRGHLIAWANNMGVKIFDIISKQRITNVPRDDISLRPDMYPCSLCWKDNVTLIIGWGTSVKVCSVKERHASEMRDLPSRYVEIVSQFETEFYISGLAPLCDQLVVLSYVKEISEKTEREYCARPRLDIIQPLSETCEEISSDALTVRGFQENECRDYHLEYSEGESLFYIVSPRDVVVAKERDQDDHIDWLLEKKKYEEALMAAEISQKNIKRHKILDIGLAYINHLVERGDYDIAARKCQKILGKNAALWEYEVYKFKEIGQLKAISPYLPRGDPVLKPLIYEMILHEFLESDYEGFATLIREWPGDLYNNSVIVQAVRDHLKKDSQNKTLLKTLAELYTYDKNYGNALEIYLTLRHKDVFQLIHKHNLFSSIKDKIVLLMDFDSEKAVDMLLDNEDKISIKKVVEELEDRPELQHVYLHKLFKRDHHKGQRYHEKQISLYAEYDRPNLLPFLRDSTHCPLEKALEICQQRNFVEETVYLLS | binds | binds |  |  | 
GFP-VPS41^WT (human vacuolar protein sorting 41, wild type, GFP-tagged) (protein, UniProt P49754-1 1-854) MAEAEEQETGSLEESTDESEEEESEEEPKLKYERLSNGVTEILQKDAASCMTVHDKFLALGTHYGKVYLLDVQGNITQKFDVSPVKINQISLDESGEHMGVCSEDGKVQVFGLYSGEEFHETFDCPIKIIAVHPHFVRSSCKQFVTGGKKLLLFERSWMNRWKSAVLHEGEGNIRSVKWRGHLIAWANNMGVKIFDIISKQRITNVPRDDISLRPDMYPCSLCWKDNVTLIIGWGTSVKVCSVKERHASEMRDLPSRYVEIVSQFETEFYISGLAPLCDQLVVLSYVKEISEKTEREYCARPRLDIIQPLSETCEEISSDALTVRGFQENECRDYHLEYSEGESLFYIVSPRDVVVAKERDQDDHIDWLLEKKKYEEALMAAEISQKNIKRHKILDIGLAYINHLVERGDYDIAARKCQKILGKNAALWEYEVYKFKEIGQLKAISPYLPRGDPVLKPLIYEMILHEFLESDYEGFATLIREWPGDLYNNSVIVQAVRDHLKKDSQNKTLLKTLAELYTYDKNYGNALEIYLTLRHKDVFQLIHKHNLFSSIKDKIVLLMDFDSEKAVDMLLDNEDKISIKKVVEELEDRPELQHVYLHKLFKRDHHKGQRYHEKQISLYAEYDRPNLLPFLRDSTHCPLEKALEICQQRNFVEETVYLLSRMGNSRSALKMIMEELHDVDKAIEFAKEQDDGELWEDLILYSIDKPPFITGLLNNIGTHVDPILLIHRIKEGMEIPNLRDSLVKILQDYNLQILLREGCKKILVADSLSLLKKMHRTQMKGVLVDEENICESCLSPILPSDAAKPFSVVVFHCRHMFHKECLPMPSMNSAAQFCNICSAKNRGPGSAILEMKK |  |  | binds | binds | binds
VPS41^S285P-APEX2-V5 (protein, UniProt P49754-1 1-854) MAEAEEQETGSLEESTDESEEEESEEEPKLKYERLSNGVTEILQKDAASCMTVHDKFLALGTHYGKVYLLDVQGNITQKFDVSPVKINQISLDESGEHMGVCSEDGKVQVFGLYSGEEFHETFDCPIKIIAVHPHFVRSSCKQFVTGGKKLLLFERSWMNRWKSAVLHEGEGNIRSVKWRGHLIAWANNMGVKIFDIISKQRITNVPRDDISLRPDMYPCSLCWKDNVTLIIGWGTSVKVCSVKERHASEMRDLPSRYVEIVSQFETEFYISGLAPLCDQLVVLPYVKEISEKTEREYCARPRLDIIQPLSETCEEISSDALTVRGFQENECRDYHLEYSEGESLFYIVSPRDVVVAKERDQDDHIDWLLEKKKYEEALMAAEISQKNIKRHKILDIGLAYINHLVERGDYDIAARKCQKILGKNAALWEYEVYKFKEIGQLKAISPYLPRGDPVLKPLIYEMILHEFLESDYEGFATLIREWPGDLYNNSVIVQAVRDHLKKDSQNKTLLKTLAELYTYDKNYGNALEIYLTLRHKDVFQLIHKHNLFSSIKDKIVLLMDFDSEKAVDMLLDNEDKISIKKVVEELEDRPELQHVYLHKLFKRDHHKGQRYHEKQISLYAEYDRPNLLPFLRDSTHCPLEKALEICQQRNFVEETVYLLSRMGNSRSALKMIMEELHDVDKAIEFAKEQDDGELWEDLILYSIDKPPFITGLLNNIGTHVDPILLIHRIKEGMEIPNLRDSLVKILQDYNLQILLREGCKKILVADSLSLLKKMHRTQMKGVLVDEENICESCLSPILPSDAAKPFSVVVFHCRHMFHKECLPMPSMNSAAQFCNICSAKNRGPGSAILEMKK | binds | binds |  |  | 
